Assay results from PubChem BioAssay AID1745845 (National Center for Advancing Translational Sciences (NCATS), 2022).
About 2,600 (0.72%) of roughly 360,000 compounds were called active. This list was built around the results that the source calls inconclusive (neither active nor inactive); the mix of calls is not that of the screen. Calls follow the shape of the dose curve; as a rule, active = well fitted inhibition curve with a large enough effect; inconclusive = small, poorly fitted or top-dose-only effect; inactive = no such curve, though single readings can be large or run the other way. A potency beside an inconclusive call is a rough fit, not a confirmed value.

experiment: Primary qHTS for Inhibitors of ATXN expression; conditions: HEK-293 ATXN2-luciferase reporter, luminescence, 24 h; series mostly up to 57 µM; also: nearly all actives have a fitted effect of over 55% in size
Summary of the method: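 ATXN2-luciferase reporter cells (luciferase flanked by upstream and downstream ATXN2 gene portions) were treated 24 h at 37 °C with compounds at up to 57 uM. SteadyGlo luminescence gave expression; GF-AFC fluorescence gave viability.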
Potency is read from the fitted curve at half-maximal effect; tags tell the direction and shape of the fitted curve.

Potency, inactive:
Cc1cc(C)n(-c2cccc3cccnc23)n1
CC(C)(C)c1ccc(-c2n[nH]c(=S)n2-c2ccccc2)cc1
Cc1ccc(NC(=S)N(C)C)cc1C
Brc1cc(Br)c2ncnc(N3CCCCC3)c2c1
COc1ccc2c(c1)cc(C(=O)N[C@H](C(=O)N1CCC(C(=O)O)CC1)C(C)C)n2C
O=c1cc(-c2ccc(Cl)cc2)[nH]c2ccccc12
COc1ccc(C2=NOC(C(=O)NCc3ccccn3)C2)cc1OC (stereo not drawn)
COc1ccc(CN(C)S(=O)(=O)c2nnc(NC(=O)c3cccc(F)c3)s2)cc1OC
CCCCn1c(O)c(N=NC(=O)c2ccncc2)c2cc(Br)ccc21
Cc1ccc(/C=C/C(=O)Nc2nc3ccccc3[nH]2)cc1
CCN(C(=O)COC(=O)c1cnccn1)c1cccc2ccccc12
NC(=O)c1cc(S(=O)(=O)N2CCN(c3ccc(F)cc3)CC2)cs1
Cn1c(=O)c2c(nc(N/N=C/c3ccco3)n2C)n(C)c1=O

Potency, active:
COc1ccc(/C=N/NC(=O)c2cccc([N+](=O)[O-])c2)c2ccccc12 17.8 µM
C/C(=N\NC(=O)C(c1ccccc1)c1ccccc1)c1ccccn1 3.55 µM
Nc1ccc2c(c1)CN1C(=O)c3ccccc3C1=N2 12.6 µM
Cc1ccc2c(c1)c1ccc3c(c1n2C)C(=O)C=CC3=O 10 µM

Potency, inconclusive:
COC(=O)c1ccc2c(=O)n(Cc3ccco3)c(SCC(=O)Nc3ccccc3Cl)nc2c1 28.2 µM [inhibitor, partial curve]
COc1ccc([C@H]2C[C@@H](n3cc(C4CC4)nn3)[C@H](O)CN2CC2CCCCC2)cc1 39.8 µM [inhibitor, single point]
COc1ccc(OC)c(NC(=O)c2cc(-c3cc(Cl)ccc3O)n[nH]2)c1 22.4 µM [inhibitor, partial curve]
Cc1ccc(C(C)C)c(OCC(=O)Nc2cccc(NC(=O)c3ccco3)c2)c1 39.8 µM [inhibitor, single point]
Clc1ccc(-c2nc3sccn3c2C=NOCc2ccc(Cl)c(Cl)c2)cc1 21.7 µM [inhibitor, partial curve]
O=C(CNC(=O)c1ccccc1)NCC(=O)OCc1ccccc1Cl 37.7 µM [inhibitor, single point]
Cc1ccc(S(=O)(=O)N2CCCc3cc(NS(=O)(=O)c4ccc(F)c(C)c4)ccc32)cc1 39.8 µM [inhibitor, single point]
Cc1cc(N2CCN(c3ccc([N+](=O)[O-])c4cccnc34)CC2)c2ccccc2n1 33.6 µM [inhibitor, partial curve, poor fit]
FC(F)(F)c1cccc(NC(=S)Nc2ccc(Cl)c(Cl)c2)c1 39.8 µM [inhibitor, single point]
COc1cccc(C(=O)NCCSc2c(-c3ccc(F)cc3)[nH]c3ccccc23)c1OC 25.1 µM [inhibitor, single point]
COc1ccc(C(=O)N2CCN(Cc3ccc4c(c3)OCO4)CC2)cc1[N+](=O)[O-] 28.2 µM [inhibitor, single point]
COc1ccc(C(=O)Nn2c(SCC(=O)c3ccc(Cl)cc3)nc3ccccc3c2=O)cc1 17.8 µM [inhibitor, single point]
COc1cc(/C=C2\SC(c3ccc(C)cc3)=NC2=O)cc(OC)c1OC 7.94 µM [inhibitor, partial curve, poor fit]
Cc1ccc(S(=O)(=O)NCCSc2nnnn2-c2cc(C)ccc2C)cc1 22.4 µM [inhibitor, partial curve, poor fit]
CC(C)c1ccc(NC(=O)c2cc(S(=O)(=O)NCC3COc4ccccc4O3)ccc2F)cc1 (stereo not drawn) 28.2 µM [inhibitor, partial curve, poor fit]
CCOc1ccccc1N(CC)C(=O)c1nn(C)c2c1CSc1ccccc1-2 31.6 µM [inhibitor, partial curve, poor fit]
O=S(=O)(NC1c2cccc3cccc(c23)C1N1CCN(CCO)CC1)c1ccccc1 (stereo not drawn) 39.8 µM [inhibitor, partial curve, poor fit]
CCOC(=O)c1cnc2cc(Cl)c(OC)cc2c1NCC1CCCO1 (stereo not drawn) 31.6 µM [inhibitor, partial curve, poor fit]
COc1cccc(/C=N\NC(=O)c2ccc(Cn3cc(Br)c([N+](=O)[O-])n3)o2)c1O 2.82 µM [inhibitor, full curve]
CC12CCC(=O)N1C(C(=O)Nc1ccccc1N1CCCCC1)CS2 (stereo not drawn) 39.8 µM [inhibitor, partial curve, poor fit]
C[C@H](CO)N1C[C@H](C)[C@@H](CN(C)C(=O)Nc2ccccc2)Oc2c(NC(=O)Nc3ccc(C(F)(F)F)cc3)cccc2C1=O 39.8 µM [inhibitor, single point]
CCN1C(=O)CC(C(C)C)N(C2CCCC2)c2nc(Nc3ccc(C(=O)NC4CCN(C)CC4)cc3OC)ncc21 (stereo not drawn) 28.2 µM [inhibitor, single point]
CCOc1ccc(Cl)cc1-c1cc(C(=O)Nc2ccc(F)cc2)[nH]n1 28.2 µM [inhibitor, single point]
N#Cc1cccc(NC(=O)COC(=O)c2ccccc2C(=O)c2ccc(Cl)c([N+](=O)[O-])c2)c1 1.5 µM [inhibitor, single point]
CCOc1cc(N2CCOCC2)c(OCC)cc1NC(=O)COc1cccc2cccnc12 39.8 µM [inhibitor, single point]
C[C@H]1C=CC(=O)O[C@H]1c1ccccc1 25.1 µM [inhibitor, single point]
